Experimental data reported in PubChem BioAssay AID588453 (National Center for Advancing Translational Sciences (NCATS), 2011).
Hit rate of the full screen: of about 390,000 compounds, about 4,000 (1%) were called active. Inconclusive results, whose numbers are uncertain, are shown with a selection of clear calls. Calls follow the shape of the dose curve; as a rule, active = well fitted inhibition curve with a large enough effect; inconclusive = small, poorly fitted or top-dose-only effect; inactive = no such curve, though single readings can be large or run the other way. A potency beside an inconclusive call is a rough fit, not a confirmed value.

Each molecule was assayed against Thioredoxin reductase 1, cytoplasmic (Rattus norvegicus) (UniProt O89049) (assay: qHTS Assay for Inhibitors of Mammalian Selenoprotein Thioredoxin Reductase 1 (TrxR1): qHTS). Conditions: recombinant rTrxR1, NADPH fluorescence consumption, selenite substrate; series mostly up to 114 µM.
Sequence of UniProt O89049 (O89049 whole entry, looked up): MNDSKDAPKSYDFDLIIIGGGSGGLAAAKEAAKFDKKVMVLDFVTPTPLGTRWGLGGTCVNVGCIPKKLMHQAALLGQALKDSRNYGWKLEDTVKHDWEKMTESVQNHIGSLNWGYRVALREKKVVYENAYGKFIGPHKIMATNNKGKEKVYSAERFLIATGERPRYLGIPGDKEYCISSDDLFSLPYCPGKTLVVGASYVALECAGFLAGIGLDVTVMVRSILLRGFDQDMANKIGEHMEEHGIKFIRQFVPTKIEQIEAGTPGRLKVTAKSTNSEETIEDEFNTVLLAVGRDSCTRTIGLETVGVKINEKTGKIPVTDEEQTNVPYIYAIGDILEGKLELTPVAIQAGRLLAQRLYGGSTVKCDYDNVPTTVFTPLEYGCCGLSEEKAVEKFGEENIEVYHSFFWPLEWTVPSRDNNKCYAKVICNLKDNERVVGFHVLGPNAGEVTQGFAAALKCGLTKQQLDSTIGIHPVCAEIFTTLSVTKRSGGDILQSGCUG
In short: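 Rat TrxR1 (90 nM in the dispensed reagent) was pre-reduced with 400 uM NADPH for 5 min at room temperature, then incubated with compound for 15 min. After 400 uM selenite was added, NADPH fluorescence (Ex 340/Em 450 nm) was followed for 8 min.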
Also: nearly all actives have a fitted effect of over 65% in size.
Potency is read from the fitted curve at half-maximal effect; tags tell the direction and shape of the fitted curve.

Question: For Cc1ccccc1NC(=S)Nc1cccc([N+](=O)[O-])c1, which Potency is on record?
Answer: Its Potency is inconclusive: 17.8 µM [inhibitor, full curve, poor fit].

Question: For O=C(CCOc1ccccc1)N(Cc1cccnc1)c1nc2ccc(Cl)cc2s1, which Potency is on record?
Answer: The Potency was inconclusive: 3.98 µM [inhibitor, full curve].

Question: For COc1cc(O)c(C(CCN2CCCC(C)C2)c2ccc3c(c2)OCO3)c(OC)c1 (stereo unspecified), which Potency is on record?
Answer: Its Potency is “inactive”.

Question: How did the Potency turn out when Cc1ccc(NC(=S)NCc2ccc3c(c2)OCO3)cc1C was run?
Answer: Its Potency is inconclusive: 31.6 µM [inhibitor, partial curve].

Question: With COC(=O)C(C)N1C(=O)S/C(=C\c2ccc(-c3ccc(C(=O)O)cc3C)o2)C1=O (stereo unspecified) as the molecule, how does the Potency read?
Answer: Its Potency is inconclusive: 79.4 µM [inhibitor, partial curve].

Question: COc1ccc(CCN(C)C(=O)Cc2ccc(-c3ccccc3)cc2)cc1OC was tested. Which Potency did it give?
Answer: The Potency was “inactive”.

Question: With COc1cccc(-n2c(-c3ccc4[nH]c(C)c(C)c4c3)n[nH]c2=S)c1 as the molecule, how does the Potency read?
Answer: Its Potency is inconclusive: 14.1 µM [inhibitor, partial curve, poor fit].

Question: Which Potency does the source give for CNC[C@H]1Oc2ccc(NC(=O)Nc3ccc(OC)cc3)cc2C(=O)N([C@@H](C)CO)C[C@H]1C here?
Answer: The Potency was inconclusive: 50.1 µM [inhibitor, partial curve].

Question: For Cc1ccc(-c2ccc(=O)n(Cc3c(F)cccc3Cl)n2)cc1, which Potency is on record?
Answer: Its Potency is “inactive”.

Question: Which Potency does the source give for COc1ccccc1NC(=O)c1c(NCc2ccc(C)o2)sc2c1CCCCC2 here?
Answer: Its Potency is active: 14.1 µM.

Question: For COc1ccc(N2C(=O)CC(NCC#N)C2=O)cc1 (stereo unspecified), which Potency is on record?
Answer: Its Potency is active: 31.6 µM.

Question: CN(C)c1ccc(/C=C/C(=O)c2c(O)c3ccccc3oc2=O)cc1 was tested. Which Potency did it give?
Answer: Its Potency is inconclusive: 20 µM [inhibitor, full curve].

Question: For COc1ccc(NC2=CC(c3ccc(OC)cc3)N(c3ccc(OC)cc3)C2=O)cc1 (stereo unspecified), which Potency is on record?
Answer: Its Potency is inconclusive: 89.1 µM [inhibitor, single point].

Question: O=C(CCl)Nc1ncc(S(=O)(=O)c2ccc([N+](=O)[O-])cc2)s1 was tested. Which Potency did it give?
Answer: Its Potency is inconclusive: 44.7 µM [inhibitor, partial curve].

Question: COc1cccc(N=NC2C(=O)N(C(N)=S)N=C2C)c1 (stereo unspecified) was tested. Which Potency did it give?
Answer: Its Potency is “inactive”.

Question: How did the Potency turn out when CN1C2CCC1/C(=C\c1ccccc1)C(=O)/C2=C\c1ccccc1 was run?
Answer: The Potency was “inactive”.

Question: Cc1ccc(NC(=O)CCc2nnc3ccc(NCc4ccco4)nn23)nc1 was tested. Which Potency did it give?
Answer: Its Potency is inconclusive: 70.8 µM [inhibitor, partial curve, poor fit].

Question: Which Potency does the source give for CC(C)NC(=O)c1sc2nc(-c3cccs3)cc(-c3cccs3)c2c1N here?
Answer: The Potency was “inactive”.

Question: How did the Potency turn out when O=C1CC(Sc2nnnn2C2CCCCC2)C(=O)N1c1ccccc1 (stereo unspecified) was run?
Answer: Its Potency is inconclusive: 35.5 µM [inhibitor, single point].

Question: How did the Potency turn out when CCCCN(CC)C(=O)c1nn(C)c2c1CSc1ccccc1-2 was run?
Answer: Its Potency is inconclusive: 79.4 µM [inhibitor, single point].

Question: Which Potency does the source give for COc1ccc(CN(C)Cc2c(O)ccc3ccccc23)cc1 here?
Answer: Its Potency is inconclusive: 17.8 µM [inhibitor, full curve].

Question: How did the Potency turn out when CC(C)OCCCn1c(=NC(=O)c2cccs2)c(C#N)cc2c(=O)n3ccccc3nc21 was run?
Answer: Its Potency is inconclusive: 79.4 µM [inhibitor, partial curve, poor fit].

Question: For COc1cccc(OC)c1OCCNCC1COc2ccccc2O1 (stereo unspecified), which Potency is on record?
Answer: Its Potency is inconclusive: 0.15 µM [inhibitor, full curve, poor fit].

Question: Which Potency does the source give for O=C(CSC1CS(=O)(=O)c2cc([N+](=O)[O-])ccc21)NNC(=O)c1ccc(Cl)cc1 (stereo unspecified) here?
Answer: The Potency was inconclusive: 20 µM [inhibitor, partial curve].

Question: With CCOC(=O)C1=C(C)N(c2ccc(C)c(C)c2)C(=O)/C1=C\c1ccco1 as the molecule, how does the Potency read?
Answer: Its Potency is inconclusive: 22.4 µM [inhibitor, full curve].

Question: Which Potency does the source give for CCOC(=O)N1CCN(C2CCCN(C(=O)c3ccccc3N(C)C)C2)CC1 (stereo unspecified) here?
Answer: The Potency was inconclusive: 79.4 µM [inhibitor, partial curve].

Question: How did the Potency turn out when c1coc(Cn2c(SCc3nc4ccccc4[nH]3)nnc2-c2cnccn2)c1 was run?
Answer: The Potency was inconclusive: 2.82 µM [inhibitor, full curve].

Question: How did the Potency turn out when CC(C)n1c(SCC(=O)Nc2nncs2)nnc1-c1ccco1 was run?
Answer: The Potency was inconclusive: 25.1 µM [inhibitor, partial curve].

Question: For O=C1CCCN1CCCNc1ccc2nnc(CCC(=O)N3CCN(c4ccc(F)cc4)CC3)n2n1, which Potency is on record?
Answer: The Potency was inconclusive: 89.1 µM [inhibitor, single point].

Question: O=C(/C=C/c1cccnc1)/C=C/c1cccnc1 was tested. Which Potency did it give?
Answer: The Potency was active: 17.8 µM.

Question: Which Potency does the source give for Cc1ccccc1C(=O)NC(=S)Nc1sc2c(c1C#N)CCC(C)C2 (stereo unspecified) here?
Answer: The Potency was inconclusive: 2.24 µM [inhibitor, full curve].

Question: CC(=O)c1ccc(OC(C)C)c(CN2CCCCC2)c1 was tested. Which Potency did it give?
Answer: The Potency was inconclusive: 31.6 µM [inhibitor, partial curve].

Question: How did the Potency turn out when COc1ccc(C2NC(=O)C(=O)/C2=C(\O)c2ccc(Cl)cc2)cc1OC (stereo unspecified) was run?
Answer: Its Potency is inconclusive: 8.91 µM [inhibitor, partial curve, poor fit].

Question: With COc1ccc(-c2nc(CS(=O)CC(=O)N3CCOCC3)c(C)o2)cc1OC (stereo unspecified) as the molecule, how does the Potency read?
Answer: Its Potency is inconclusive: 20 µM [inhibitor, full curve].

Question: For COC(C#CCCN(C)C)(c1ccccc1)c1ccccc1, which Potency is on record?
Answer: Its Potency is inconclusive: 44.7 µM [inhibitor, partial curve, poor fit].

Question: Which Potency does the source give for CCN1CCN(c2nc3ccccc3nc2NS(=O)(=O)c2ccc(NC(C)=O)cc2)CC1 here?
Answer: Its Potency is inconclusive: 79.4 µM [inhibitor, partial curve, poor fit].

Question: How did the Potency turn out when CC(C)=C1C2C=CC1C1C(=O)N(c3ccc4c(c3)OCO4)C(=O)C21 (stereo unspecified) was run?
Answer: The Potency was inconclusive: 44.7 µM [inhibitor, partial curve, poor fit].

Question: With CCOc1ccc(Nc2nc3c(S(=O)(=O)c4ccc(C(C)C)cc4)nnn3c3ccsc23)cc1 as the molecule, how does the Potency read?
Answer: Its Potency is inconclusive: 89.1 µM [inhibitor, single point].

Question: Cc1c(N=Cc2ccc(Cl)o2)c(=O)n(-c2ccccc2)n1C was tested. Which Potency did it give?
Answer: Its Potency is inconclusive: 22.4 µM [inhibitor, single point].

Question: With Cc1nnc(NC(=O)CSCc2cc(=O)c3ccccc3[nH]2)s1 as the molecule, how does the Potency read?
Answer: Its Potency is “inactive”.

Question: Which Potency does the source give for CCOC(=O)c1sc2nc(CC(=O)OC)nc(NCCN3CCOCC3)c2c1C here?
Answer: The Potency was inconclusive: 50.1 µM [inhibitor, partial curve, poor fit].
